Laboratory results: PMC9911399, “Two distinct binding modes provide the RNA-binding protein RbFox with extraordinary sequence specificity”
Numbering of substitutions follows the chain as printed; changes in the protein carry UniProt numbers. The list shows a part of the results.

T1: RBFOX1 RRM RbFoxmut (Fox-RRM*) (Homo sapiens, UniProt Q9NWB1 109-208, R118D;E147R;N151S;E152T)
T1 sequence: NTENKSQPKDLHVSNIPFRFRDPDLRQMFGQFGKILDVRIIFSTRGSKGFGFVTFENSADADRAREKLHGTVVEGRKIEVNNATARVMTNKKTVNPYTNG

B1: GUGAUCG (DNA:RNA)
RNA: GGGAGACCGGAAUUCAGAUUGUCCGUGAUCGUUAAAUCCCGUCGUAGCCACCA
DNA 1: CAATCTGAATTCCGGTCTCCC
DNA 2: TGGTGGCTACGACGGGATT
B2: CCACGCU (DNA:RNA)
RNA: B1 RNA with G25C, U26C, G27A, A28C, U29G, G31U
DNA 1: CAATCTGAATTCCGGTCTCCC
DNA 2: TGGTGGCTACGACGGGATT
B3: AUCGACA (DNA:RNA)
RNA: B1 RNA with G25A, G27C, A28G, U29A, G31A
DNA 1: CAATCTGAATTCCGGTCTCCC
DNA 2: TGGTGGCTACGACGGGATT
B4: UCUGUAG (DNA:RNA)
RNA: B1 RNA with G25U, U26C, G27U, A28G, C30A
DNA 1: CAATCTGAATTCCGGTCTCCC
DNA 2: TGGTGGCTACGACGGGATT
B5: AGGGAGG (DNA:RNA)
RNA: B1 RNA with G25A, U26G, A28G, U29A, C30G
DNA 1: CAATCTGAATTCCGGTCTCCC
DNA 2: TGGTGGCTACGACGGGATT
B6: CACAUCU (DNA:RNA)
RNA: B1 RNA with G25C, U26A, G27C, G31U
DNA 1: CAATCTGAATTCCGGTCTCCC
DNA 2: TGGTGGCTACGACGGGATT
B7: AUAGGUG (DNA:RNA)
RNA: B1 RNA with G25A, G27A, A28G, U29G, C30U
DNA 1: CAATCTGAATTCCGGTCTCCC
DNA 2: TGGTGGCTACGACGGGATT
B8: AUUUGCG (DNA:RNA)
RNA: B1 RNA with G25A, G27U, A28U, U29G
DNA 1: CAATCTGAATTCCGGTCTCCC
DNA 2: TGGTGGCTACGACGGGATT
B9: CCUUUAU (DNA:RNA)
RNA: B1 RNA with G25C, U26C, G27U, A28U, C30A, G31U
DNA 1: CAATCTGAATTCCGGTCTCCC
DNA 2: TGGTGGCTACGACGGGATT
B10: CCAAAUC (DNA:RNA)
RNA: B1 RNA with G25C, U26C, G27A, U29A, C30U, G31C
DNA 1: CAATCTGAATTCCGGTCTCCC
DNA 2: TGGTGGCTACGACGGGATT
B11: AUUACUU (DNA:RNA)
RNA: B1 RNA with G25A, G27U, U29C, C30U, G31U
DNA 1: CAATCTGAATTCCGGTCTCCC
DNA 2: TGGTGGCTACGACGGGATT
B12: CCCAAAU (DNA:RNA)
RNA: B1 RNA with G25C, U26C, G27C, U29A, C30A, G31U
DNA 1: CAATCTGAATTCCGGTCTCCC
DNA 2: TGGTGGCTACGACGGGATT
B13: UAGUUCC (DNA:RNA)
RNA: B1 RNA with G25U, U26A, A28U, G31C
DNA 1: CAATCTGAATTCCGGTCTCCC
DNA 2: TGGTGGCTACGACGGGATT
B14: CCAGAAU (DNA:RNA)
RNA: GGGAGACCGGAAUUCAGAUUGUCCCCAGAAUUUAAAUCCCGUCGUAGCCACCA
DNA 1: CAATCTGAATTCCGGTCTCCC
DNA 2: TGGTGGCTACGACGGGATT
B15: GUCAGGC (DNA:RNA)
RNA: B1 RNA with G27C, U29G, C30G, G31C
DNA 1: CAATCTGAATTCCGGTCTCCC
DNA 2: TGGTGGCTACGACGGGATT
B16: CCAAAAA (DNA:RNA)
RNA: B14 RNA with G28A, U31A
DNA 1: CAATCTGAATTCCGGTCTCCC
DNA 2: TGGTGGCTACGACGGGATT
B17: CCCAUUA (DNA:RNA)
RNA: B14 RNA with A27C, G28A, A29U, A30U, U31A
DNA 1: CAATCTGAATTCCGGTCTCCC
DNA 2: TGGTGGCTACGACGGGATT
B18: GAGUGCA (DNA:RNA)
RNA: B1 RNA with U26A, A28U, U29G, G31A
DNA 1: CAATCTGAATTCCGGTCTCCC
DNA 2: TGGTGGCTACGACGGGATT
B19: AGGUAAU (DNA:RNA)
RNA: B14 RNA with C25A, C26G, A27G, G28U
DNA 1: CAATCTGAATTCCGGTCTCCC
DNA 2: TGGTGGCTACGACGGGATT
B20: GUCAAAC (DNA:RNA)
RNA: B1 RNA with G27C, U29A, C30A, G31C
DNA 1: CAATCTGAATTCCGGTCTCCC
DNA 2: TGGTGGCTACGACGGGATT
B21: CUAACUA (DNA:RNA)
RNA: B14 RNA with C26U, G28A, A29C, A30U, U31A
DNA 1: CAATCTGAATTCCGGTCTCCC
DNA 2: TGGTGGCTACGACGGGATT
B22: CCAAGCG (DNA:RNA)
RNA: B14 RNA with G28A, A29G, A30C, U31G
DNA 1: CAATCTGAATTCCGGTCTCCC
DNA 2: TGGTGGCTACGACGGGATT
B23: ACAUGUC (DNA:RNA)
RNA: B14 RNA with C25A, G28U, A29G, A30U, U31C
DNA 1: CAATCTGAATTCCGGTCTCCC
DNA 2: TGGTGGCTACGACGGGATT
B24: CCUUCCU (DNA:RNA)
RNA: B14 RNA with A27U, G28U, A29C, A30C
DNA 1: CAATCTGAATTCCGGTCTCCC
DNA 2: TGGTGGCTACGACGGGATT
B25: CGCCACG (DNA:RNA)
RNA: B14 RNA with C26G, A27C, G28C, A30C, U31G
DNA 1: CAATCTGAATTCCGGTCTCCC
DNA 2: TGGTGGCTACGACGGGATT
B26: GGUAGCA (DNA:RNA)
RNA: B1 RNA with U26G, G27U, U29G, G31A
DNA 1: CAATCTGAATTCCGGTCTCCC
DNA 2: TGGTGGCTACGACGGGATT
B27: AGCAAAC (DNA:RNA)
RNA: B14 RNA with C25A, C26G, A27C, G28A, U31C
DNA 1: CAATCTGAATTCCGGTCTCCC
DNA 2: TGGTGGCTACGACGGGATT
B28: CCAGUCU (DNA:RNA)
RNA: B14 RNA with A29U, A30C
DNA 1: CAATCTGAATTCCGGTCTCCC
DNA 2: TGGTGGCTACGACGGGATT
B29: GUAGAGU (DNA:RNA)
RNA: B14 RNA with C25G, C26U, A30G
DNA 1: CAATCTGAATTCCGGTCTCCC
DNA 2: TGGTGGCTACGACGGGATT
B30: CCCCAGC (DNA:RNA)
RNA: B14 RNA with A27C, G28C, A30G, U31C
DNA 1: CAATCTGAATTCCGGTCTCCC
DNA 2: TGGTGGCTACGACGGGATT
B31: CGGCGUC (DNA:RNA)
RNA: B14 RNA with C26G, A27G, G28C, A29G, A30U, U31C
DNA 1: CAATCTGAATTCCGGTCTCCC
DNA 2: TGGTGGCTACGACGGGATT

Target: T1, RBFOX1 RRM RbFoxmut (Fox-RRM*)
Test: EMSA; HiTS-Eq, 1 nM pool, 10 min; buffer printed only for the single-RNA assays: 10 mM Tris pH 7.5, 150 mM NaCl, 3.4 mM EDTA, 0.001% NP-40, 30 C
Details: tags: His6 N-terminal (pET28a); label: 5' 32P
In short: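 Purified RbFox RRM, wild type or mutant, was incubated for 10 min in 50 µL with 1 nM of a 5′-radiolabelled RNA pool carrying 7 randomized nucleotides, whose flanks were annealed to DNA oligonucleotides, over a series of increasing protein concentrations. Unbound RNA was resolved on 8% native PAGE, cut out, reverse-transcribed, barcoded by PCR and sequenced on an Illumina HiSeq 2500. Relative association constants were derived from changes in read counts for each RNA species versus the control reaction and normalised to the cognate motif.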

Binder | binding signal
B1 | 0.32 KA relative to UGCAUGU
B2 | 0.0913 KA relative to UGCAUGU
B3 | 0.0866 KA relative to UGCAUGU
B4 | 0.106 KA relative to UGCAUGU
B5 | 0.134 KA relative to UGCAUGU
B6 | 0.0501 KA relative to UGCAUGU
B7 | 0.142 KA relative to UGCAUGU
B8 | 0.14 KA relative to UGCAUGU
B9 | 0.091 KA relative to UGCAUGU
B10 | 0.0332 KA relative to UGCAUGU
B11 | 0.102 KA relative to UGCAUGU
B12 | 0.0634 KA relative to UGCAUGU
B13 | 0.0602 KA relative to UGCAUGU
B14 | 0.0869 KA relative to UGCAUGU
B15 | 0.1 KA relative to UGCAUGU
B16 | 0.0575 KA relative to UGCAUGU

Binder | binding signal
B17 | 0.102 KA relative to UGCAUGU
B18 | 0.232 KA relative to UGCAUGU
B19 | 0.11 KA relative to UGCAUGU
B20 | 0.06 KA relative to UGCAUGU
B21 | 0.079 KA relative to UGCAUGU
B22 | 0.122 KA relative to UGCAUGU
B23 | 0.135 KA relative to UGCAUGU
B24 | 0.0672 KA relative to UGCAUGU
B25 | 0.095 KA relative to UGCAUGU
B26 | 0.127 KA relative to UGCAUGU
B27 | 0.0613 KA relative to UGCAUGU
B28 | 0.0598 KA relative to UGCAUGU
B29 | 0.141 KA relative to UGCAUGU
B30 | 0.1 KA relative to UGCAUGU
B31 | 0.152 KA relative to UGCAUGU
